# From PubChem BioAssay AID624417 (National Center for Advancing Translational Sciences (NCATS), 2012)
# Screen size: about 410,000 compounds; about 6,400 (1.6%) were called active. Inconclusive means that the source gave no clear call. Such entries were picked first, then a sample of the others. Calls follow the shape of the dose curve; as a rule, active = well fitted inhibition curve with a large enough effect; inconclusive = small, poorly fitted or top-dose-only effect; inactive = no such curve, though single readings can be large or run the other way. No potency is given beside an inconclusive call; the fits are too rough.
# Target: Glucagon-like peptide 1 receptor (Homo sapiens) (UniProt P43220)
# Assay: qHTS of GLP-1 Receptor Inverse Agonists (Inhibition Mode); also: nearly all actives have a fitted effect of over 55% in size
# Conditions: HEK293 GLP-1R CRE-luciferase, luminescence, 24 h, GLP-1R form is constitutively active; activity change, negative = inhibition: at 38.3 µM (top of the series) unless noted
# How it was run: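 HEK293 cells stably co-expressing constitutively active GLP-1R and a cAMP-responsive luciferase reporter were seeded in DMEM with 10% Nu serum, given compounds after 12 h, and incubated 24 h at 37 deg C. Luminescence was then read.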
# % is scaled to controls: 0 for no effect and ±100 for the full control effect; potency is read from the fitted curve at half-maximal effect; tags tell the direction and shape of the fitted curve.
# UniProt P43220, sequence (P43220 whole entry, looked up): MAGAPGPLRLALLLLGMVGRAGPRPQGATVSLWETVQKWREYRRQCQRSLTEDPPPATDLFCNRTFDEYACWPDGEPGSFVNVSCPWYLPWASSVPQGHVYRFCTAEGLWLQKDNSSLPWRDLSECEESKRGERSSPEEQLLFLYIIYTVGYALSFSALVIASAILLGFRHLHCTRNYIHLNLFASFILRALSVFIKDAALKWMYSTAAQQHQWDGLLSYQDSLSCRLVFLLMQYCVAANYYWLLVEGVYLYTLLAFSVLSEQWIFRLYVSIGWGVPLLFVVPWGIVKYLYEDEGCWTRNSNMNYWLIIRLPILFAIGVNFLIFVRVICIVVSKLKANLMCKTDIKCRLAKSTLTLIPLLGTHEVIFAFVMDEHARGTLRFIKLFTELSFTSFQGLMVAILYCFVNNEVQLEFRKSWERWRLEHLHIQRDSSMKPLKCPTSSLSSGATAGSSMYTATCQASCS
Structure (SMILES),"activity change, negative = inhibition",Potency
COc1ccc(CN2CCN(c3ccc(F)cc3)CC2)c(OC)c1OC,inactive: -14.4%,
CC(CNC(=O)c1ccc2nc(Cc3ccccc3)oc2c1)c1ccccc1 (configuration not stated),,active: 11.2 µM
COc1ccc(C(C)NC(=O)CC23CC4CC(CC(C4)C2)C3)cc1 (configuration not stated),,"inconclusive [inhibitor, single point]"
Fc1ccc(C2=CC(c3ccc(F)cc3)n3c(nc4ccccc43)N2)cc1 (configuration not stated),,"inconclusive [inhibitor, single point]"
Clc1ccccc1Nc1nnc(-c2ccncc2)s1,,"inconclusive [inhibitor, partial curve, poor fit]"
COc1ccc(NC(=O)CCCn2nc(C)c3sc4ccccc4c3c2=O)cc1,inactive: 20.5%,
COc1ccc(C2=NN(C(N)=S)C(c3ccccc3)C2)cc1 (configuration not stated),,"inconclusive [inhibitor, partial curve, poor fit]"
COc1ccc(C(=O)NC(CO)c2nnc(SCc3ccc(Cl)c(Cl)c3)n2C)cc1 (configuration not stated),,"inconclusive [inhibitor, partial curve, poor fit]"
COc1ccc(CCNCC(O)COc2cccc(Br)c2)cc1OC (configuration not stated),,"inconclusive [inhibitor, partial curve, poor fit]"
CC(C)(C)c1ccc(OCc2nnc(-c3ccccc3)o2)cc1,,"inconclusive [inhibitor, partial curve, poor fit]"
CCCCN(C)c1c(C)nc2ccc(C(=O)NCCOc3ccc(OC)cc3)cn12,,"inconclusive [inhibitor, single point]"
COc1cccc2c1C(=O)C=C(C)C2=O,,"inconclusive [inhibitor, single point]"
Cn1c(N)c(C(=O)CSc2nc3ccccc3c(=O)n2Cc2ccccc2)c(=O)n(C)c1=O,inactive: 13.8%,
Cc1cc2n(n1)C(c1cccs1)Nc1ccccc1-2 (configuration not stated),inactive: 5.5%,
Cc1ccc(CN(C(=O)Cn2nnc3ccccc32)C(C(=O)NCc2ccco2)c2ccc(C)o2)cc1 (configuration not stated),,"inconclusive [inhibitor, full curve, poor fit]"
Cc1cccc(CCN2C(Nc3ccccc3)=NC[C@@H]2CC(C)C)c1,,"inconclusive [inhibitor, single point]"
CC(C)(C)NC(=O)Cc1ccc(Cl)c(Cl)c1,,"inconclusive [inhibitor, single point]"
COc1ccc(S(=O)(=O)N(C)C)cc1NC(=O)c1ccc2c(c1)NC(=O)C(C)S2 (configuration not stated),inactive: 1.45%,
Cc1ncc(CO)c(/C=N/NC(=O)c2cc3c(s2)CCCC3)c1O,,"inconclusive [inhibitor, full curve, poor fit]"
O=C(Nc1ccc2c(c1)OCO2)OCc1ccccc1,inactive: -13.4%,
COc1ccc(N2CCN(CCCNC(=O)Nc3ccccc3)CC2)cc1,,"inconclusive [inhibitor, single point]"
CCOC(=O)Cc1cn(C(=O)OC(C)(C)C)c2ccccc12,,"inconclusive [inhibitor, single point]"
COc1ccc(-n2c(SCC(=O)NCc3ccc(C)cc3)nc3n[nH]c(C)c3c2=N)cc1,inactive: -0.426%,

Structure (SMILES),"activity change, negative = inhibition",Potency
CC(=O)c1ccc(NC(=O)Nc2cccc(Cl)c2)cc1,,"inconclusive [inhibitor, single point]"
COc1cc(OC)c(C2CC(=O)N3CN(c4ccccc4)CSC3=C2C#N)cc1OC (configuration not stated),inactive: 2.09%,
Nc1c(C=C2C=CC(=O)C=C2)c(=O)nc2snc(SCc3ccccc3)n12,,"inconclusive [inhibitor, single point]"
CCN(c1ccccc1)S(=O)(=O)c1ccc(C(=O)Nc2nnc(C3CC3)o2)cc1,inactive: -11.3%,
COc1ccccc1NS(=O)(=O)c1ccc(N/N=C/c2c(C)nn(-c3ccccc3)c2N2CCCC2)c([N+](=O)[O-])c1,,"inconclusive [inhibitor, full curve, poor fit]"
O=C(Cc1ccccc1)N(c1ccccc1)c1ccccc1,,"inconclusive [inhibitor, partial curve, poor fit]"
O=C(CSc1nnc(-c2ccc(F)cc2)o1)N1CCCc2ccccc21,,"inconclusive [inhibitor, single point]"
Cc1ccc(CSc2nnc3[nH]c(=O)cc(-c4ccccc4)n23)cc1,inactive: -6.17%,
Cc1nn(C)cc1CNC(=O)c1cnn2c1NC(c1ccc(Br)cc1)CC2C(F)(F)F (configuration not stated),,"inconclusive [inhibitor, partial curve, poor fit]"
N#Cc1cn(CC(=O)N2CCc3ccccc3C2)c2ccccc12,,"inconclusive [inhibitor, single point]"
COc1ccccc1-c1ccc(SCC(=O)NCCc2ccccc2)nn1,,"inconclusive [inhibitor, single point]"
COc1ccc(OC)c(NC(=O)CN(Cc2ccc(F)cc2)C2CCCCC2)c1,,active: 3.55 µM
O=C(NN=C1CCN(Cc2ccccc2)CC1)c1cc(Br)ccc1O,inactive: 6.05%,
COc1ccc(-n2c(=O)[nH]c3cc(C(=O)NCCc4ccccc4)ccc3c2=O)cc1OC,,"inconclusive [inhibitor, single point]"
CCCS(=O)(=O)c1nc(S(=O)(=O)c2ccc(C)cc2)c(NC)s1,inactive: 0.495%,
O=C(NCc1ccccc1)Nc1cccn(Cc2ccccc2Cl)c1=O,,"inconclusive [inhibitor, single point]"
COc1ccc(C(O)(C(=O)NNc2ccc(C)cc2)c2cccs2)cc1 (configuration not stated),,active: 2.51 µM
O=C(COc1ccccc1)Nc1ccc2nc(SCC(=O)N3CCOCC3)sc2c1,inactive: 9%,
Cn1c(=O)oc2cc(S(=O)(=O)NCCC(=O)N3CC=C(c4ccccc4)CC3)ccc21,inactive: 5.8%,
Cc1ccc(SC(C)c2nc(-c3cccnc3)no2)cc1 (configuration not stated),,"inconclusive [inhibitor, single point]"
CCOC1CCCc2oc(-c3ccc(N(C)C)cc3)c(C(=O)OC)c21 (configuration not stated),,"inconclusive [inhibitor, partial curve, poor fit]"
C/C(=N\OCC(=O)Nc1ccccc1C(C)(C)C)c1ccc2c(c1)OCCO2,,"inconclusive [inhibitor, single point]"
CN(Cc1ccccc1)C(=O)COC(=O)c1c[nH]c2ccccc12,,"inconclusive [inhibitor, single point]"

Structure (SMILES),"activity change, negative = inhibition",Potency
COc1cccc(CC2(CO)CCCN(Cc3cc4ccccc4[nH]3)C2)c1 (configuration not stated),,"inconclusive [inhibitor, partial curve, poor fit]"
O=C(CSc1nc(COc2ccccc2)nc2ccccc12)NC1CCCC1,,"inconclusive [inhibitor, partial curve, poor fit]"
O=C(CN1c2cccc3cccc(c23)S1(=O)=O)Nc1ccccc1Br,,"inconclusive [inhibitor, partial curve, poor fit]"
Cc1ccc(NC(=O)Cc2coc3ccc(C(C)C)cc23)cc1Cl,,"inconclusive [inhibitor, partial curve, poor fit]"
NC(=O)c1oc2ccccc2c1NC(=O)C1CCCCC1,inactive: -8.44%,
CC(=O)Nc1cccc(NC(=O)C2CC(=O)N(CCc3ccc(F)cc3)C2)c1 (configuration not stated),inactive: 0.444%,
CCCOc1ccc(-c2nc(C#N)c(N3CCN(C)CC3)o2)cc1,,"inconclusive [inhibitor, single point]"
Nc1nc(=S)[nH]c2c1C1(CCCC1)Cc1ccccc1-2,,"inconclusive [inhibitor, single point]"
c1ccc2c(c1)OCC(c1csc3ncnc(N4CCCCC4)c13)O2 (configuration not stated),,"inconclusive [inhibitor, partial curve, poor fit]"
CN1C(C(=O)Nc2ccc(OC(F)(F)F)cc2)=CC(c2cccs2)=NS1(=O)=O,,"inconclusive [inhibitor, single point]"
O=C(CN1C(=O)C2C3C=CC(C4CC34)C2C1=O)Nc1cccc2ncccc12 (configuration not stated),,"inconclusive [inhibitor, single point]"
CC(Oc1ccc2c(-c3ccccc3)cc(=O)oc2c1)C(=O)NCCCn1ccnc1 (configuration not stated),,"inconclusive [inhibitor, partial curve, poor fit]"
O=C(c1ccc(Cl)cc1Cl)N1CCc2ccccc21,,"inconclusive [inhibitor, partial curve, poor fit]"
C[C@@]12CCC=C[C@H]1[C@H](c1ccccc1Br)N(Cc1ccccc1)C2=O,,"inconclusive [inhibitor, single point]"
Cc1cc2nc(-c3ccccc3)c(Cc3cccc(F)c3)n2c(C)c1Br,,"inconclusive [inhibitor, single point]"
COc1cc(C2C(C#N)=C(N)Oc3cc(N)ccc32)cc(OC)c1OC (configuration not stated),,"inconclusive [inhibitor, full curve]"
CC(C)c1nc2ccc(C(=O)Nc3ccccc3F)cc2o1,inactive: 1.72%,
O=C(Cn1ncc2c([nH]c3ccccc32)c1=O)Nc1ccc(CN2CCCCC2)cc1,,"inconclusive [inhibitor, partial curve, poor fit]"
N=c1c2c(-c3ccccc3)c(-c3ccccc3)n(Cc3ccco3)c2ncn1CCO,,"inconclusive [inhibitor, partial curve, poor fit]"
COc1ccccc1CN1CCN(Cc2nc(-c3ccc(C)cc3)oc2C)CC1,,"inconclusive [inhibitor, single point]"
COCCNC(=S)N(CCc1c(C)[nH]c2ccc(Cl)cc12)Cc1cccs1,,active: 2.51 µM
